According to PubChem BioAssay AID1240 (Sanford-Burnham Center for Chemical Genomics, 2008):
The whole screen tested about 50,000 compounds, of which about 800 (1.6%) showed an effect of 50% or more. This is one part of the list.

These molecules were tested against Bcl-2-like protein 10 (Homo sapiens) (UniProt Q9HD36) (assay: Phenotype converters, Bcl-B/TR3 peptide binding displacement, primary biochemical FP (AID 1240;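 note: 0% = Bcl-B with tracer peptide and DMSO and 100% = tracer peptide lacking Bcl-B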)). Settings: GST-Bcl-B / FITC-TR3 peptide fluorescence polarization; stronger effect = higher value; compound at 3.75 mg/L.
Chain of UniProt Q9HD36 (Q9HD36 whole entry, looked up): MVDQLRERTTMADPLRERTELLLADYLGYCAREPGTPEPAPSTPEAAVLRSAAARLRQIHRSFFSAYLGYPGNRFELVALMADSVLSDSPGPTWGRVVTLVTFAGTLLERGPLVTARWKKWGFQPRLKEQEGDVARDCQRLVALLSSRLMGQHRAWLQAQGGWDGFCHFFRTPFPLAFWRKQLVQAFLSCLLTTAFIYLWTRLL

| Structure (SMILES) | displacement |
| --- | --- |
| CCOc1ccc(/C=N/Nc2nnc(-c3ccccc3)c(-c3ccccc3)n2)c(O)c1 | 3.7% |
| COc1ccc(C(=O)NC2=NCCS2)cc1OC | 19% |
| COc1ccc(C(=O)c2ccc(N3CCOCC3)c([N+](=O)[O-])c2)cc1 | -26% |
| O=C1OC(OC2CCCCC2)(c2ccccc2)c2ccccc21 (centres undefined) | -0.9% |
| NC(=O)c1ccc(NC(=O)Nc2cccc(Cl)c2)cc1 | -3.6% |
| Cc1onc(-c2ccccc2)c1C(=O)N1CCN(c2c(Cl)cccc2[N+](=O)[O-])CC1 | 7.8% |
| COc1cccc(OCCOc2c(Cl)cc(/C=C3/SC(=S)NC3=O)cc2OC)c1 | 0.8% |
| Cc1ccc(OCCOc2ccccc2C=O)cc1C | -5.7% |
| CO/N=C(/C(=N/OC)c1ccccc1)c1ccccc1 | -8% |
| O=C(CSCC(=O)Nc1ccc([N+](=O)[O-])cc1)Nc1ccccc1 | 10% |
| COC(=O)CN1C(=O)Nc2ccc(Br)cc2C1c1ccccc1 (centres undefined) | -7.3% |
| CS(=O)(=O)N(Cc1ccc(Cl)cc1)c1ccc(C(=O)NC2CCCC2)cc1 | 3.7% |
| COc1ccc2ccccc2c1C=Nc1ccccc1 | -9.1% |
| Cc1ccc(S(=O)(=O)N2CCN(CCN3C(=O)c4cccc5cccc(c45)C3=O)CC2)cc1[N+](=O)[O-] | 1.9% |
| COc1ccc(NC(=O)c2ccccc2[N+](=O)[O-])c(OC)c1 | 13.2% |
| C#CCn1cc(/C=C2\C(=O)NC(=O)N(c3ccc(Cl)cc3)C2=O)c2ccccc21 | 37.5% |
| Cc1c(Cl)cccc1N=C1NC(=O)/C(=C/c2ccc(O)c([N+](=O)[O-])c2)S1 | 8.7% |
| Cc1c(/C=C/c2nc3ccccc3c(=O)n2-c2ccc([N+](=O)[O-])cc2)c2ccccc2n1C | 32.7% |
| O=C(CSc1nc2ccc(N3C(=O)c4ccccc4C3=O)cc2s1)c1ccc(F)cc1 | 37.1% |
| Cc1ccc(C(=O)Nc2nc3ccccc3n2C)cc1 | 4.6% |
| CCOC(=O)C(CCOc1ccc(C)c(C)c1)C(=O)OCC | -19.3% |
| COc1ccc(CP(=O)(c2ccccc2)c2ccccc2)cc1 | -1.3% |
| C=CCOc1ccc(C=C2C(=O)NC(=S)NC2=O)cc1 | 10.5% |

| Structure (SMILES) | displacement |
| --- | --- |
| Cc1ccc(NC(=O)CCC(=O)NCc2ccccc2)cc1C | -13.9% |
| Cc1ccc(C(=O)Nc2ccc(N(C)C)cc2)cc1[N+](=O)[O-] | 7.6% |
| C=CCN1C(=O)NC(=O)C(=Cc2ccc(C(C)C)cc2)C1=O | 9.3% |
| CCOC(=O)c1ccc(NC(=O)CN2C(=O)CCC2=O)cc1 | 10.7% |
| Cc1ccccc1/C=N/N1CCN(Cc2ccccc2Cl)CC1 | 12.8% |
| O=C(c1cccc(Br)c1)N1CCCCC1 | 2.7% |
| O=C(COc1ccc([N+](=O)[O-])cc1)Nc1ccc(NC(=O)c2ccco2)cc1 | 0.4% |
| C=CCN1C(=O)/C(=C\c2ccc(I)o2)C(=O)NC1=S | -40.9% |
| C/C(=C\C(=S)Nc1ccccc1)Nc1ccc(Cl)cc1 | -23.8% |
| COC(=O)COc1ccc(/C=C2\C(=O)NC(=S)N(c3ccc(C(C)C)cc3)C2=O)cc1OC | -12% |
| Cc1cocc1C(=O)N1N=C(c2ccccc2)CC1(O)C(F)(F)F (centres undefined) | -11.9% |
| CC(C)CC(=O)N1CCN(C2CCC(C)CC2)CC1 (centres undefined) | 3% |
| NNC(=O)CCNS(=O)(=O)c1ccc([N+](=O)[O-])cc1 | -0.7% |
| CC(=O)Nc1sc2c(c1C(N)=O)CCC(C)C2 (centres undefined) | 10.6% |
| Cc1ccc(/C=C2/C=C(c3ccc(Br)cc3)OC2=O)o1 | 21.3% |
| Cc1ccc2oc(-c3cc(NC(=O)C(C)C)ccc3O)nc2c1 | 7.4% |
| Cc1ccc(NCc2c(O)ccc3ccccc23)cc1 | 17.3% |
| CCN(CC)CCn1c(=N)n(CC(=O)c2ccc(C)cc2)c2ccccc21 | 0.2% |
| Oc1ccc(Br)cc1C=Nc1cccc2ccccc12 | 15.5% |
| O=C1C(=O)N(Cc2ccc(F)cc2)c2ccc(Br)cc21 | 9% |
| CN(C)c1ccc(/C=C/C(=O)c2cccc(Br)c2)cc1 | -37.5% |
| Cc1ccccc1N(CC(=O)O)S(C)(=O)=O | 8.8% |
| Cc1nn(CC(=O)Nc2ccc(O)cc2)c(=O)c2ccccc12 | -9.1% |

| Structure (SMILES) | displacement |
| --- | --- |
| O=C(/C=C/c1cccc([N+](=O)[O-])c1)Nc1ccc(-c2nc3ccccc3s2)c(O)c1 | -5.1% |
| Cc1[nH]n(-c2ccccc2)c(=O)c1C(c1ccc(C(F)(F)F)cc1)c1c(C)[nH]n(-c2ccccc2)c1=O | 18.6% |
| CCNC(=O)CCC(=O)Nc1cc(Cl)ccc1C | 8.1% |
| CC(C)C(=O)N1CCN(c2ccc([N+](=O)[O-])cc2Cl)CC1 | 4.5% |
| COC(=O)C1=C(C)N(c2ccc(C)cc2)C(=O)/C1=C\c1ccc2c(c1)OCO2 | 107% |
| C=CCn1c(=S)[nH]c2scc(-c3ccc(C)cc3)c2c1=O | -4.4% |
| CC(C)COc1ccc(C(=O)N/C(=C/c2ccccc2)C(=O)NCC(=O)OCc2ccccc2)cc1 | 1.5% |
| CC(=O)Nc1ccc2oc(-c3ccc(F)cc3Cl)nc2c1 | -2% |
| O=C(Nc1ccc(O)c(-c2nc3ccccc3o2)c1)c1ccc(-c2ccc(Cl)cc2)o1 | 1.8% |
| O=C(O)C1C2CCC(C2)C1C(=O)NCc1cccs1 (centres undefined) | -0.4% |
| Cc1ccc(C2CC(C(F)(F)F)n3ncc(C(=O)Nc4ccc(OC(F)(F)F)cc4)c3N2)cc1 (centres undefined) | 6.1% |
| O=C(N/N=C/c1coc2ccccc2c1=O)c1cc(O)cc(O)c1 | -5.8% |
| Cc1cc([N+](=O)[O-])ccc1NCc1cccc(C(F)(F)F)c1 | 2.6% |
| COC(=O)Oc1ccc(/C=C2/C(=O)N(c3ccccc3)N=C2C)cc1OC | 6.5% |
| O=C(Cc1ccc(F)cc1F)Nc1ccc(F)cc1F | 10% |
| N#C/C(=C\c1ccc(-c2cccc(Cl)c2Cl)o1)C(=O)NCc1ccco1 | 37.2% |
| Cc1cc(NC(=O)c2cc(-c3ccc(C)o3)nc3ccccc23)no1 | 0.8% |
| COC(=O)c1ccc(C(=O)OC)c(NC(=O)COc2ccc(Cl)cc2C)c1 | 5.4% |
| O=[N+]([O-])c1ccccc1C=NN1CCN(Cc2ccccc2Cl)CC1 | -10.1% |
| Cc1cccc(NCCCC(=O)N/N=C/c2ccco2)c1 | 1.8% |
| CC(=C1C(=O)c2ccccc2C1=O)N1CCN(c2ccc([N+](=O)[O-])cc2)CC1 | 11.3% |
| O=C(Nc1ccc(O)c(-c2nc3ccccc3o2)c1)c1cc2ccccc2oc1=O | -2.6% |
| O=C1NC(c2ccccc2OCc2ccccc2)Nc2sc3c(c21)CCCC3 (centres undefined) | -4.7% |
